{"source": "patent US5576208A", "about": "“Antisense oligonucleotide inhibition of the RAS gene” (priority 1994, dated 1996)", "description": "Oligonucleotides were incubated in crude HeLa cellular extracts at 37° C. to determine their sensitivity to nuclease degradation as described in Dignam et al., Nucleic Acids Res. 1983, 11, 1475-1489. […] Oligonucleotides with two-, three and four-diester gaps had T 1/2 of approximately 5.5 hours, 3.75 hours, and 3.2 hours, and oligonucleotides with five or ten deoxy linkages had T 1/2 of 1.75 hours and 0.9 hours, respectively.", "data": [{"substance": "CsCsAsCsAsCoCoGoAoCoGsGsCsGsCsCsC [compound 4233]", "values": [{"measurement": "T 1/2", "result": 7, "unit": "h"}]}]}
